Where “and” joins values, the source holds several entries; their conditions need not be identical. Equal entries are not always repeated. Inconclusive means that the source gave no clear call. Such entries were picked first, then a sample of the others. For some assays here: A potency beside an inconclusive call is a rough fit, not a confirmed value. Calls of active or inactive are those of the source. Unless noted, calls follow the shape of the dose curve; as a rule, active = well fitted curve in the direction sought with a large enough effect in the repeat runs; inconclusive = weak or mixed curves; inactive = no such curve, though single readings can be large; an effect the other way counts as inactive or inconclusive.
Legend:
[1] = qHTS assay for small molecule agonists of the p53 signaling pathway (AID 651631; calls by dose curve; also: nearly all actives have a fitted effect of over 15% in size; also: potency is read from the fitted curve at half-maximal effect; as to activation: % is scaled to controls: 0 for no effect and ±100 for the full control effect); details: HCT-116 p53RE-bla reporter, beta-lactamase FRET ratio, 16 h
In short: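 HCT-116 cells carrying a beta-lactamase reporter under p53 response elements were dosed with compound for 16 h at 37 °C. LiveBLAzer B/G FRET substrate was then added for 2 h at room temperature, and fluorescence intensity was read to detect pathway agonism.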

[2] = target: Glucocorticoid receptor (Homo sapiens) (UniProt P04150); assay: qHTS assay to identify small molecule antagonists of the glucocorticoid receptor (GR) signaling pathway (AID 720692; active = well fitted inhibition curve with a large enough effect in the signal ratio in the repeat runs, not every such curve was filed as active; inconclusive = weak or mixed curves, or effect the other way; inactive = no such curve, though single readings can be large or run the other way; the % refers to the signal ratio; also: potency is read from the fitted curve at half-maximal effect; as to activity change, negative = inhibition: % is scaled to controls: 0 for no effect and ±100 for the full control effect); details: GR-bla HeLa, beta-lactamase FRET ratio, dexamethasone-stimulated, 18 h; activity change, negative = inhibition: at 58.5 µM (top of the series) unless noted
Sequence of UniProt P04150 (P04150 whole entry, looked up): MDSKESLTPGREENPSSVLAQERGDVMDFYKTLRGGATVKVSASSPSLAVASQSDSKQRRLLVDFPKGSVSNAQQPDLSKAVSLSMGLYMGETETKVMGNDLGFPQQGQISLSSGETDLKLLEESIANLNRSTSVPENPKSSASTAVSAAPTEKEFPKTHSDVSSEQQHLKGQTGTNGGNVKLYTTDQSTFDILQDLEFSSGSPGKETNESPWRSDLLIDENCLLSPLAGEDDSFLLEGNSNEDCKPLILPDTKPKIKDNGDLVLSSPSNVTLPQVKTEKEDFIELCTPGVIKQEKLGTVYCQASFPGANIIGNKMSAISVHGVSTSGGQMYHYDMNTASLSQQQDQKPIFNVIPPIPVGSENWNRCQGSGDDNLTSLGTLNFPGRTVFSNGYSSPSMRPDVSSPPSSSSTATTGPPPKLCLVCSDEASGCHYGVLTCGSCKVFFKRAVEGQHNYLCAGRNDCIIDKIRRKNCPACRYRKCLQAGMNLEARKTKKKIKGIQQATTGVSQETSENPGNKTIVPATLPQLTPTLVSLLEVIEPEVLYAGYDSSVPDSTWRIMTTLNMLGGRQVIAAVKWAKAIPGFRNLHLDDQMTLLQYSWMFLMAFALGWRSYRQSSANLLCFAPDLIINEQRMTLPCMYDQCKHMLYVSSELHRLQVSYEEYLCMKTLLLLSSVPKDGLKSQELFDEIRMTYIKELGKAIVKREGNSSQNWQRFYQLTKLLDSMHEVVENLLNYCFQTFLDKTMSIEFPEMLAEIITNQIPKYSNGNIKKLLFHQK
In short: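 In a 1536-well cell format, compounds were added 4 h after seeding GR-bla HeLa cells, together with dexamethasone at 5 nM final; reporter activity was measured by FRET-substrate fluorescence following 18 h at 37 C.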

[3] = qHTS assay for small molecules that induce genotoxicity in human embryonic kidney cells expressing luciferase-tagged ATAD5 (AID 651632); also: nearly all actives have a fitted effect of over 15% in size; also: potency is read from the fitted curve at half-maximal effect
In short: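 DMSO vehicle served as the control. HEK293T reporter cells, 16 hr at 37C, then 30 min Amplite at room temperature; ATAD5 induction is measured as luciferase activity.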

[4] = qHTS assay for small molecules that induce genotoxicity in human embryonic kidney cells expressing luciferase-tagged ATAD5 - cell viability (AID 651634; calls by dose curve; also: nearly all actives have a fitted effect of over 25% in size; also: potency is read from the fitted curve at half-maximal effect; as to activity, negative = cytotoxicity: % is scaled to controls: 0 for no effect and ±100 for the full control effect)
In short: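 Here HEK293T cells with the ATAD5 luciferase reporter are incubated with test compounds for 15.5 hr, and cytotoxicity is then gauged by measuring protease activity in live cells using fluorescence.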

[5] = qHTS assay for identifying genotoxic compounds that show differential cytotoxicity against isogenic chicken DT40 cell lines with known DNA damage response pathways - Rev3 mutant cell line (AID 743014); details: chicken DT40 Rev3-/- viability, CellTiter-Glo, 40 h; activity, negative = cytotoxicity: at 68.4 µM (top of the series); also: potency is read from the fitted curve at half-maximal effect; nearly all actives have a fitted effect of over 55% in size
[6] = qHTS assay for small molecule disruptors of the mitochondrial membrane potential - cell viability (AID 720634; calls by dose curve; also: potency is read from the fitted curve at half-maximal effect; nearly all actives have a fitted effect of over 20% in size)
In short: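 Viability of HepG2 cells is scored from ATP content by luminescence; cells are exposed to compound for 1 hr at 37 C and 5% CO2, then dosed with m-MPI dye before the CellTiter-Glo reagent.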

[7] = target: Glucocorticoid receptor (Homo sapiens) (UniProt P04150); assay: qHTS assay to identify small molecule agonists of the glucocorticoid receptor (GR) signaling pathway (AID 720691; active = well fitted activation curve with a large enough effect in the signal ratio in the repeat runs, not every such curve was filed as active; inconclusive = weak or mixed curves, or effect the other way; inactive = no such curve, though single readings can be large or run the other way; the % refers to the signal ratio; also: potency is read from the fitted curve at half-maximal effect); details: GR-bla HeLa, beta-lactamase reporter ratio, 18 h; activation: at 62.4 µM (top of the series) unless noted
In short: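 Compounds in DMSO, alongside positive controls, were added to GR-bla HeLa reporter cells and incubated 18 h at 37 C; GRE-driven beta-lactamase was detected by fluorescence after 2 h with FRET substrate at room temperature.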

[8] = qHTS assay to identify small molecule antagonists of the glucocorticoid receptor (GR) signaling pathway - cell viability counter screen (AID 720693); details: GR-bla HeLa viability, CellTiter-Glo luminescence, 18 h, with 5 nM dexamethasone present; viability change, negative = cytotoxic: at 58.5 µM (top of the series) unless noted; also: potency is read from the fitted curve at half-maximal effect; nearly all actives have a fitted effect of over 55% in size
[9] = qHTS assay for small molecule agonists of the p53 signaling pathway - cell viability (AID 651633; calls by dose curve; also: potency is read from the fitted curve at half-maximal effect; nearly all actives have a fitted effect of over 30% in size)
In short: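 p53RE-bla cells, seeded at 4,000 per well and rested 5 h at 37 C/5% CO2, received compounds in DMSO for 16 h at 37 C. CellTiter-Glo was then added, and luminescence was read after 30 min at room temperature to gauge cytotoxicity.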

[10] = qHTS assay for small molecule disruptors of the mitochondrial membrane potential (AID 720635); details: HepG2 mitochondrial membrane potential, Mito-MPS dye ratio; ratio activity, negative = MMP loss: at 83.2 µM (top of the series) unless noted; also: potency is read from the fitted curve at half-maximal effect
In short: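 HepG2 cells (2,000/well) attached overnight at 37C, then took compound for 1 hr at 37C, 5% CO2. Mito-MPS dye was added for 30 min; fluorescence was read at 490/535 nm (monomers) and 540/590 nm (aggregates).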

[11] = qHTS assay for identifying genotoxic compounds that show differential cytotoxicity against isogenic chicken DT40 cell lines with known DNA damage response pathways - Rad54/Ku70 mutant cell line (AID 743015); details: DT40 Rad54/Ku70 mutant viability, CellTiter-Glo, 40 h; activity change, negative = cytotoxicity: at 66.8 µM (top of the series); also: potency is read from the fitted curve at half-maximal effect; nearly all actives have a fitted effect of over 60% in size
[12] = qHTS assay to identify small molecule antagonists of the androgen receptor (AR) signaling pathway - cell viability counter screen (AID 743033; also: potency is read from the fitted curve at half-maximal effect; nearly all actives have a fitted effect of over 45% in size); details: AR-bla HEK293 viability, CellTiter-Glo luminescence, 16 h; activity change, negative = cytotoxicity: at 58.5 µM (top of the series)
[13] = qHTS assay for identifying genotoxic compounds that show differential cytotoxicity against isogenic chicken DT40 cell lines with known DNA damage response pathways - wild type cell line (AID 743012); details: DT40 wild type chicken cells viability, CellTiter-Glo, 40 h; activity change, negative = cytotoxicity: at 68.4 µM (top of the series) unless noted; also: potency is read from the fitted curve at half-maximal effect; nearly all actives have a fitted effect of over 60% in size
In short: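 Viability of DNA repair-proficient chicken DT40 cells was assessed by CellTiter-Glo luminescence following 40 h compound exposure at 37 C/5% CO2.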

[14] = qHTS assay to test for compound auto fluorescence at 460 nm (blue) in HepG2 cells (AID 720687); also: % is scaled to controls: 0 for no effect and ±100 for the full control effect
In short: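 Cells (2,000/well in MEM with 10% FBS) attached overnight at 37 C, then were exposed to compound or DMSO for 1 hr at 37 C, 5% CO2. Fluorescence read at Ex/Em 405/460 nm, expressed as triamterene-equivalent signal.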

[15] = activation: at 73.3 µM (top of the series) unless noted
Tags tell the direction and shape of the fitted curve or compound fluorescence and quenching.

SMILES: Cc1cc(Cl)ccc1OCCCC(=O)O
- activation [1, 15]: inconclusive: 5.14% [at 95.1 µM]
- activation ([1]; at 73.3 µM (top of the series)): inactive: 2.5%
- Potency [2]: inactive

SMILES: CN(C)c1ccc(N)cc1
- Potency [1, 15]: inconclusive: 59.6 µM [falling, single point]
- Potency [3]: inconclusive: 18.9 µM [activator, partial curve]
- Potency [4]: inactive
- Potency [5]: active: 21.2 µM

SMILES: N#Cc1sc2c(=O)c3ccccc3c(=O)c=2sc1C#N
- Potency [1, 15]: inconclusive: 9.69 µM [cytotoxic, full curve]
- Potency [3]: inconclusive: 24.3 µM [activator, partial curve, poor fit]
- Potency [6]: active: 24.3 µM
- Potency [7]: inconclusive: 21.9 µM [cytotoxic, partial curve]
- Potency [8]: active: 490 nM
- Potency [5]: active: 0.433 µM

SMILES: CC(O)C(=O)[O][Hg][c]1ccccc1 (configuration not stated)
- Potency [1, 15]: active: 0.545 µM
- Potency [3]: active: 0.0969 µM
- Potency [9]: active: 217 nM
- Potency [6]: active: 5.45 µM
- Potency [10]: active: 2.73 µM
- Potency [11]: active: 0.154 µM
- Potency [12]: active: 2.45 µM

SMILES: Cc1cc(N=Nc2ccccc2C)ccc1N
- Potency [1, 15]: inconclusive: 30.6 µM [cytotoxic, partial curve] and inconclusive: 61.1 µM [cytotoxic, partial curve]
- Potency [3]: active: 6.11 µM and active: 6.86 µM
- Potency [9]: inconclusive: 48.6 µM [cytotoxic, partial curve] and inconclusive: 61.1 µM [cytotoxic, partial curve, poor fit]
- Potency [4]: inconclusive: 24.3 µM [falling, partial curve]
- Potency [6]: active: 19.3 µM and active: 15.4 µM
- Potency [10]: active: 15.4 µM and active: 30.6 µM
- Potency [2]: inconclusive: 43.6 µM [cytotoxic, partial curve] and inconclusive: 61.6 µM [cytotoxic, partial curve, poor fit]
- Potency [8]: active: 49 µM and inconclusive: 61.6 µM [cytotoxic, single point]
- Potency [13]: inconclusive: 77 µM [cytotoxic, single point]
- Potency [12]: inconclusive: 34.7 µM [cytotoxic, partial curve]

SMILES: CCO/N=C(\CC)C1=C(O)CC(c2c(C)cc(C)cc2C)CC1=O (configuration not stated)
- Potency [1, 15]: inconclusive: 34.3 µM [rising, partial curve, poor fit]
- Potency [3]: inconclusive: 77 µM [activator, partial curve, poor fit]
- Potency [12]: inconclusive: 0.0549 µM [rising, full curve, poor fit]

SMILES: c1cc[c]([Hg][c]2ccccc2)cc1
- Potency [1, 15]: active: 15.4 µM
- Potency [3]: inconclusive: 68.6 µM [activator]
- Potency [9]: inconclusive: 61100 nM [cytotoxic, single point]
- Potency [10]: active: 15.4 µM
- Potency [2]: active: 0.347 µM

SMILES: O=C(O)C1C2CCC(O2)C1C(=O)O (configuration not stated)
- Potency [1, 15]: inconclusive: 56 µM
- activation [1, 15]: inconclusive: 11.1% [at 95.1 µM]
- Potency [3]: inconclusive: 31 µM [activator, partial curve, poor fit] and inconclusive: 49.9 µM [activator, partial curve]
- Potency [7]: inconclusive: 9.89 µM
- Potency [2]: inconclusive: 20 µM [inhibitor, partial curve]
- Potency [8]: inconclusive: 62.4 µM [cytotoxic, single point] and inconclusive: 56.5 µM [cytotoxic, single point]

SMILES: CCCCCCCCCCCCCCCCCCn1cc[n+](C)c1
- Potency [1, 15]: inconclusive: 27.1 µM [cytotoxic, partial curve]
- Potency [3]: inactive
- Potency [9]: inconclusive: 242 nM [cytotoxic, full curve, poor fit]
- Potency [6]: inconclusive: 68.2 µM [cytotoxic, single point]
- Potency [10]: active: 9.63 µM
- Potency [2]: inconclusive: 38.7 µM [cytotoxic, partial curve]
- Potency [8]: active: 24400 nM
- Potency [12]: active: 13.7 µM

SMILES: O=[N+]([O-])c1ccc(Cl)c([N+](=O)[O-])c1
- Potency [1, 15]: active: 55.3 µM and active: 12.2 µM
- Potency [3]: inconclusive: 24.3 µM [activator, single point]
- Potency [9]: active: 22 µM and active: 54.5 µM
- Potency [4]: active: 55.3 µM and active: 68.6 µM
- Potency [6]: active: 22 µM and active: 21.7 µM
- Potency [10]: active: 8.77 µM and active: 8.63 µM
- Potency [14]: inactive
- Potency [2]: inconclusive: 31.4 µM [cytotoxic, partial curve] and inconclusive: 49 µM [cytotoxic, partial curve]
- Potency [8]: active: 19.8 µM and inconclusive: 21.9 µM [cytotoxic, single point]
- Potency [12]: active: 11.1 µM and active: 17.4 µM

— PubChem BioAssay (Tox21)
